# Measurements: the supplement of paper PMC8728848
# The list shows a part of the results.
# B1: Cohesin-mDCIR (Macaca mulatta) (protein)
# chain: GLDDLDAVRIKVDTVNAKPGDTVRIPVRFSGIPSKGIANCDFVYSYDPNVLEIIEIEPGDIIVDPNPDKSFDTAVYPDRKIIVFLFAEDSGTGAYAITKDGVFATIVAKVKEGAPNGLSVIKFVEVGGFANNDLVEQKTQFFDGGVNVGDTTEPATPTTPVTTPTTTDDLDAASFQKYSQLLEKMTTKDLVHTTLECVKKNMTTEETAWSCCPKNWKPFSSNCYFISTESASWQKSEKDCARMEAHLLVINTREEQDFIFQNLQEESAYFVGLSDPEGQRHWQWVDRTPYNESSTFWHPHEPSDPDERCVVLNFRKTPKRWGWNDVHCIVHQRSVCEMMKIHLHHHHHH
# Tests used:
# Assay in all cases: glycan array binding signal (z-score within array); higher = stronger binding
# Conditions in all cases: glycan notation: IUPAC condensed, linker removed
# [1] = biological target: Neu5Ac(a2-6)Gal(b1-4)GlcNAc(b1-2)Man(a1-3)[Man(a1-6)]Man(b1-4)GlcNAc(b1-4)GlcNAc
# How it was run: (§1)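 Glycan array data came from 3228 arrays in the Consortium for Functional Glycomics database, and only arrays with an available protein sequence were kept. Glycan names were put into IUPAC-condensed notation, and columns mapping to the same glycan were averaged. The binding signal is a within-array Z-score, averaged across arrays of one protein sequence run at different concentrations or buffers and across linkers. A negative Z-score can be read as non-binding.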
# [2] = biological target: Neu5Ac(a2-6)Gal(b1-4)GlcNAc(b1-2)Man(a1-3)[Neu5Ac(a2-3)Gal(b1-4)GlcNAc(b1-2)Man(a1-6)]Man(b1-4)GlcNAc(b1-4)GlcNAc
# How it was run: as §1
# [3] = biological target: Neu5Ac(a2-6)Gal(b1-4)GlcNAc(b1-2)Man(a1-3)[Neu5Ac(a2-6)Gal(b1-4)GlcNAc(b1-2)Man(a1-6)]Man(b1-4)GlcNAc(b1-4)GlcNAc
# How it was run: as §1
# [4] = biological target: Neu5Ac(a2-6)Gal(b1-4)GlcNAc(b1-2)Man(a1-3)[Neu5Ac(a2-6)Gal(b1-4)GlcNAc(b1-2)Man(a1-6)]Man(b1-4)GlcNAc(b1-4)[Fuc(a1-6)]GlcNAc
# How it was run: as §1
# [5] = biological target: Neu5Ac(a2-6)Gal(b1-4)GlcNAc(b1-2)Man(a1-6)Man(b1-4)GlcNAc(b1-4)GlcNAc
# How it was run: as §1
# [6] = biological target: Neu5Ac(a2-6)Gal(b1-4)GlcNAc(b1-2)Man(a1-6)[Gal(b1-4)GlcNAc(b1-2)Man(a1-3)]Man(b1-4)GlcNAc(b1-4)GlcNAc
# How it was run: as §1
# [7] = biological target: Neu5Ac(a2-6)Gal(b1-4)GlcNAc(b1-2)Man(a1-6)[GlcNAc(b1-2)Man(a1-3)]Man(b1-4)GlcNAc(b1-4)GlcNAc
# How it was run: as §1
# [8] = biological target: Neu5Ac(a2-6)Gal(b1-4)GlcNAc(b1-2)Man(a1-6)[Man(a1-3)]Man(b1-4)GlcNAc(b1-4)GlcNAc
# How it was run: as §1
# [9] = biological target: Neu5Ac(a2-6)Gal(b1-4)GlcNAc(b1-2)[Neu5Ac(a2-6)Gal(b1-4)GlcNAc(b1-4)]Man(a1-3)[GlcNAc(b1-4)][Neu5Ac(a2-6)Gal(b1-4)GlcNAc(b1-2)[Neu5Ac(a2-6)Gal(b1-4)GlcNAc(b1-6)]Man(a1-6)]Man(b1-4)GlcNAc(b1-4)GlcNAc
# How it was run: as §1
# [10] = biological target: Neu5Ac(a2-6)Gal(b1-4)GlcNAc(b1-2)[Neu5Ac(a2-6)Gal(b1-4)GlcNAc(b1-4)]Man(a1-3)[GlcNAc(b1-4)][Neu5Ac(a2-6)Gal(b1-4)GlcNAc(b1-4)Man(a1-6)]Man(b1-4)GlcNAc(b1-4)GlcNAc
# How it was run: as §1
# [11] = biological target: Neu5Ac(a2-6)Gal(b1-4)GlcNAc(b1-2)[Neu5Ac(a2-6)Gal(b1-4)GlcNAc(b1-6)]Man(a1-6)[Neu5Ac(a2-6)Gal(b1-4)GlcNAc(b1-2)Man(a1-3)][GlcNAc(b1-4)]Man(b1-4)GlcNAc(b1-4)GlcNAc
# How it was run: as §1
# [12] = biological target: Neu5Ac(a2-6)Gal(b1-4)GlcNAc(b1-3)Gal(b1-3)GlcNAc
# How it was run: as §1
# [13] = biological target: Neu5Ac(a2-6)Gal(b1-4)GlcNAc(b1-3)Gal(b1-4)GlcNAc
# How it was run: as §1
# [14] = biological target: Neu5Ac(a2-6)Gal(b1-4)GlcNAc(b1-3)Gal(b1-4)GlcNAc(b1-2)Man(a1-3)[Neu5Ac(a2-6)Gal(b1-4)GlcNAc(b1-3)Gal(b1-4)GlcNAc(b1-2)Man(a1-6)]GalNAc
# How it was run: as §1
# [15] = biological target: Neu5Ac(a2-6)Gal(b1-4)GlcNAc(b1-3)Gal(b1-4)GlcNAc(b1-3)Gal(b1-4)GlcNAc
# How it was run: as §1
# [16] = biological target: Neu5Ac(a2-6)Gal(b1-4)GlcNAc(b1-3)Gal(b1-4)GlcNAc(b1-3)Gal(b1-4)GlcNAc(b1-2)Man(a1-3)[Neu5Ac(a2-6)Gal(b1-4)GlcNAc(b1-3)Gal(b1-4)GlcNAc(b1-3)Gal(b1-4)GlcNAc(b1-2)Man(a1-6)]GalNAc
# How it was run: as §1
# [17] = biological target: Neu5Ac(a2-6)Gal(b1-4)GlcNAc(b1-3)Gal(b1-4)GlcNAc(b1-3)GalNAc
# How it was run: as §1
# [18] = biological target: Neu5Ac(a2-6)Gal(b1-4)GlcNAc(b1-3)Gal(b1-4)GlcNAc(b1-3)[Neu5Ac(a2-6)Gal(b1-4)GlcNAc(b1-3)Gal(b1-4)GlcNAc(b1-6)]GalNAc
# How it was run: as §1
# [19] = biological target: Neu5Ac(a2-6)Gal(b1-4)GlcNAc(b1-3)Gal(b1-4)GlcNAc(b1-6)[Gal(b1-3)]GalNAc
# How it was run: as §1
# [20] = biological target: Neu5Ac(a2-6)Gal(b1-4)GlcNAc(b1-3)Gal(b1-4)[Fuc(a1-3)]GlcNAc(b1-3)Gal(b1-4)[Fuc(a1-3)]GlcNAc
# How it was run: as §1
# [21] = biological target: Neu5Ac(a2-6)Gal(b1-4)GlcNAc(b1-3)GalNAc
# How it was run: as §1
# [22] = biological target: Neu5Ac(a2-6)Gal(b1-4)GlcNAc(b1-3)[Neu5Ac(a2-6)Gal(b1-4)GlcNAc(b1-6)]GalNAc
# How it was run: as §1
# [23] = biological target: Neu5Ac(a2-6)Gal(b1-4)GlcNAc(b1-6)GalNAc
# How it was run: as §1
# [24] = biological target: Neu5Ac(a2-6)Gal(b1-4)GlcNAc(b1-6)[Gal(b1-3)GlcNAc(b1-3)]Gal(b1-4)Glc
# How it was run: as §1
# [25] = biological target: Neu5Ac(a2-6)Gal(b1-4)GlcNAc(b1-6)[Gal(b1-3)]GalNAc
# How it was run: as §1
# [26] = biological target: Neu5Ac(a2-6)Gal(b1-4)GlcNAc6S
# How it was run: as §1
# Neu5Ac(a2-6)GalNAc = biological target: Neu5Ac(a2-6)GalNAc
# How it was run: as §1
# [27] = biological target: Neu5Ac(a2-6)GalNAc(b1-4)GlcNAc
# How it was run: as §1
# [28] = biological target: Neu5Ac(a2-6)GalNAc(b1-4)GlcNAc6S
# How it was run: as §1
# [29] = biological target: Neu5Ac(a2-6)GlcNAc(b1-4)GlcNAc
# How it was run: as §1
# [30] = biological target: Neu5Ac(a2-6)GlcNAc(b1-4)GlcNAc(b1-4)GlcNAc
# How it was run: as §1
binder,measurement,setting,value
B1,glycan array binding signal (z-score),[1],-0.443
same,glycan array binding signal (z-score),[2],-0.217
same,glycan array binding signal (z-score),[3],-0.416
same,glycan array binding signal (z-score),[4],-0.304
same,glycan array binding signal (z-score),[5],-0.316
same,glycan array binding signal (z-score),[6],-0.372
same,glycan array binding signal (z-score),[7],-0.357
same,glycan array binding signal (z-score),[8],-0.46
same,glycan array binding signal (z-score),[9],0.14
same,glycan array binding signal (z-score),[10],-0.257
same,glycan array binding signal (z-score),[11],-0.404
same,glycan array binding signal (z-score),[12],-0.172
same,glycan array binding signal (z-score),[13],-0.426
same,glycan array binding signal (z-score),[14],-0.045
same,glycan array binding signal (z-score),[15],-0.397
same,glycan array binding signal (z-score),[16],0.257
same,glycan array binding signal (z-score),[17],-0.438
same,glycan array binding signal (z-score),[18],-0.316
same,glycan array binding signal (z-score),[19],-0.414
same,glycan array binding signal (z-score),[20],-0.434
same,glycan array binding signal (z-score),[21],-0.128
same,glycan array binding signal (z-score),[22],-0.389
same,glycan array binding signal (z-score),[23],-0.436
same,glycan array binding signal (z-score),[24],-0.461
same,glycan array binding signal (z-score),[25],-0.399
same,glycan array binding signal (z-score),[26],0.045
same,glycan array binding signal (z-score),Neu5Ac(a2-6)GalNAc,1.4
same,glycan array binding signal (z-score),[27],-0.2
same,glycan array binding signal (z-score),[28],-0.38
same,glycan array binding signal (z-score),[29],-0.413
same,glycan array binding signal (z-score),[30],-0.455
